# Assay results published in ChEMBL document CHEMBL4888484, “Replenishing the malaria drug discovery pipeline: Screening and hit evaluation of the MMV Hit Generation Library 1 (HGL1) against asexual blood stage Plasmodium falciparum ,using a nano luciferase reporter read-out” (2022).
# Screen size: about 150,000 compounds; about 540 (0.36%) showed an effect of 50% or more. The list shows a part of the results.
# Test system: Plasmodium falciparum
# Test: Primary screen in NF54 nanoGlo assay, in single point, at 2uM, 72h; a lower Z score goes with more inhibition
# Type: functional, Erythrocyte
# Details: timepoint 72 hour
SMILES,% Inhibition [%],Z score
CCS(=O)(=O)c1cc(Cl)cc(CNCc2ccc(C)nc2)c1,-5,0.62
O=C(CCc1ccnc2ccccc12)NC1C2CCOC2C12CCC2 (stereo unspecified),-9,1.66
CC(C)c1ccoc1C(=O)N(CC(F)(F)F)[C@H]1CCCOC1,-6,0.75
Cc1ccccc1CN[C@H]1CCCOCC1,-4,0.53
CC(C)(C(=O)N1CCC2(CCc3ccccc3C2=O)CC1)n1cc(N)cn1,-5,0.75
O=C(c1ccc(Cl)cc1)c1cc(NC(=O)c2cc(Cl)cc(Br)c2O)ccc1Cl,-9,1.24
CCCc1nc(C)cc(N2CC[C@H]3[C@H](CCC(=O)N3CCCO)C2)n1,-3,0.62
COc1ccccc1[C@@H](NCc1ncnn1C)C1CCCC1,-3,0.59
Cc1cccc(Cl)c1S(=O)(=O)NC(=O)c1cn2c(n1)CCC2,-10,1.23
O=C(Nc1cccc(S(=O)(=O)N2CCOCC2)c1)c1n[nH]c(=O)c2ccccc12,-9,1
O=C1Nc2c(F)cccc2[C@@H]1CC(=O)N(Cc1ccncc1)C1CC1,-6,0.98
CC1CCN(C(=O)CCN2CCN(c3ncc[nH]c3=O)CC2)CC1,-6,1.15
O=C1CN(S(=O)(=O)c2cccc3nsnc23)c2ncccc2N1,6,-1.11
C=CCN1C[C@H]2CN(C(=O)COc3cccc(C)c3C)C[C@@]2(C(=O)O)C1,-7,1.47
Cc1ccc(-c2ccc(C(=O)N3CCC[C@H](C(N)=O)C3)cc2)c(C)n1,-1,0.1
CC(C)NC(=O)N[C@H]1CCN2C(=O)c3cc(-c4ccc(F)cc4F)ccc3NC(=O)[C@H]12,34,-3.82
O=C(NCC1(c2ccccc2Cl)CCOCC1)[C@H]1C[C@H](F)CN1,-6,0.8
NC1CCCC1C(=O)N1CCC(c2nc3cc(Cl)ccc3o2)CC1 (stereo unspecified),-10,1.52
CCn1cnnc1CN(C)Cc1cc2cc(C)ccc2n1C,-17,1.74
C[C@H](NC(=O)c1ccoc1)c1nc(C2CC2)no1,-10,1.05
C=CCN1C[C@@H](C(=O)N(CC)Cc2cc(Cl)ccc2OC)CCC1=O,25,-3.14
COC1CCCC1OC(=O)c1cccc(-n2cnnn2)c1 (stereo unspecified),-5,0.6
Cc1ccc(N(CN2C(=O)NC(C)(C)C2=O)CN2C(=O)NC(C)(C)C2=O)cc1,-13,1.65
